Measurements: a collection of fitness landscapes (doi:10.1126/science.1257360)
The other results are listed elsewhere or left out.

B1: PhoQ; a variant is named by its letters at X, in order, P23837 (parent)
chain: MKKLLRLFFPLSLRVRFLLATAAVVLVLSLAYGMVALIGYSVSFDKTTFRLLRGESNLFYTLAKWENNKLHVELPENIDKQSPTMTLIYDENGQLLWAQRDVPWLMKMIQPDWLKSNGFHEIEADVNDTSLLLSGDHSIQQQLQEVREDDDDAEMTHSVAVNVYPATSRMPKLTIVVVDTIPVELKSSYMVWSWFIYVLSANLLLVIPLLWVAAWWSLRPIEALAKEVRELEEHNRELLNPATTRELTSLVRNLNRLLKSERERYDKYRTTLTDLTHSLKTPLXXLQXXLRSLRSEKMSVSDAEPVMLEQISRISQQIGYYLHRASMRGGTLLSRELHPVAPLLDNLTSALNKVYQRKGVNISLDISPEISFVGEQNDFVEVMGNVLDNACKYCLEFVEISARQTDEHLYIVVEDDGPGIPLSKREVIFDRGQRVDTLRPGQGVGLAVAREITEQYEGKIVAGESMLGGARMEVIFGRQHSAPKDE

Variants of: B1
Assay: enrichment ratio after two sorts for PhoP signalling (ratio (wild type AVST 3.29)); higher = more functional
Details: with PhoP (E. coli)

| Variant | enrichment ratio |
| --- | --- |
| DFVQ | ≤ 0.25 |
| EATD | ≤ 0.25 |
| DFFV | ≤ 0.25 |
| MYGE | ≤ 0.25 |
| RWEI | ≤ 0.25 |
| ACDV | ≤ 0.25 |
| MMDG | ≤ 0.25 |
| FSNV | ≤ 0.25 |
| DMFP | ≤ 0.25 |
| WMSF | ≤ 0.25 |
| RHEL | ≤ 0.25 |
| MNLA | ≤ 0.25 |
| YRVI | ≤ 0.25 |
| FGWG | ≤ 0.25 |
| HYFI | ≤ 0.25 |
| ALGS | ≤ 0.25 |
| QSDT | 1.97 |
| LACP | ≤ 0.25 |
| TTAQ | 8.86 |
| LEWP | ≤ 0.25 |
| RRQF | ≤ 0.25 |
| QMVD | ≤ 0.25 |
| NTHQ | ≤ 0.25 |
| EYAG | ≤ 0.25 |

| Variant | enrichment ratio |
| --- | --- |
| GASV | ≤ 0.25 |
| TQLP | ≤ 0.25 |
| EIAQ | ≤ 0.25 |
| HAWL | ≤ 0.25 |
| TGGI | 3.92 |
| QRGF | ≤ 0.25 |
| SIVK | 4.61 |
| TGGG | 1.15 |
| YFNV | ≤ 0.25 |
| AECR | ≤ 0.25 |
| HHKH | ≤ 0.25 |
| WWWK | ≤ 0.25 |
| WNGM | ≤ 0.25 |
| DDKH | ≤ 0.25 |
| ETPQ | ≤ 0.25 |
| RPVY | ≤ 0.25 |
| VMRE | 2.09 |
| MRLT | ≤ 0.25 |
| PTAV | ≤ 0.25 |
| YSHQ | 0.532 |
| CAIL | ≤ 0.25 |
| NCLD | ≤ 0.25 |
| REMF | ≤ 0.25 |
| HKAY | ≤ 0.25 |

| Variant | enrichment ratio |
| --- | --- |
| NTKI | ≤ 0.25 |
| EWWQ | ≤ 0.25 |
| GGGW | ≤ 0.25 |
| FNKG | ≤ 0.25 |
| WDCR | ≤ 0.25 |
| HQGM | ≤ 0.25 |
| IHQW | ≤ 0.25 |
| PYIN | ≤ 0.25 |
| KVMK | ≤ 0.25 |
| SAKP | ≤ 0.25 |
| VVWQ | ≤ 0.25 |
| WKWP | ≤ 0.25 |
| QWYL | ≤ 0.25 |
| RRVI | ≤ 0.25 |
| RIFE | ≤ 0.25 |
| PECQ | ≤ 0.25 |
| VVKY | ≤ 0.25 |
| SNQI | 12.5 |
| AGFP | ≤ 0.25 |
| LRAY | ≤ 0.25 |
| NWVP | ≤ 0.25 |
| GFRY | ≤ 0.25 |
| MAHN | ≤ 0.25 |
| NKYA | ≤ 0.25 |

| Variant | enrichment ratio |
| --- | --- |
| SHTG | ≤ 0.25 |
| ARTT | ≤ 0.25 |
| MKAH | ≤ 0.25 |
| APCC | ≤ 0.25 |
| LCTS | ≤ 0.25 |
| QTPN | ≤ 0.25 |
| GRMK | ≤ 0.25 |
| QPHW | ≤ 0.25 |
| NVMF | ≤ 0.25 |
| GKSE | ≤ 0.25 |
| EANP | ≤ 0.25 |
| LWQR | ≤ 0.25 |
| STVS | 6.89 |
| GNPQ | ≤ 0.25 |
| HFFI | ≤ 0.25 |
| HPLY | ≤ 0.25 |
| SSGE | 4.25 |
| QRRV | ≤ 0.25 |
| RGLA | ≤ 0.25 |
| NTMN | ≤ 0.25 |
| DRPW | ≤ 0.25 |
| HEYP | ≤ 0.25 |
| EGCE | ≤ 0.25 |
| WITS | ≤ 0.25 |

| Variant | enrichment ratio |
| --- | --- |
| GACN | ≤ 0.25 |
| DKKL | ≤ 0.25 |
| DEFV | ≤ 0.25 |
| DFLS | ≤ 0.25 |
| NQCF | ≤ 0.25 |
| FPFY | ≤ 0.25 |
| AGVR | ≤ 0.25 |
| PPNL | ≤ 0.25 |
| YMSR | ≤ 0.25 |
| MAKG | ≤ 0.25 |
| DTFD | ≤ 0.25 |
| PSNL | ≤ 0.25 |
| HAPT | ≤ 0.25 |
| LLHF | ≤ 0.25 |
| VLGN | ≤ 0.25 |
| NSPA | ≤ 0.25 |
| ITTK | ≤ 0.25 |
| WDGH | ≤ 0.25 |
| IKAD | ≤ 0.25 |
| DRDC | ≤ 0.25 |
| LDNG | ≤ 0.25 |
| KFQR | ≤ 0.25 |
| SKEL | ≤ 0.25 |
| AILN | 4.12 |

| Variant | enrichment ratio |
| --- | --- |
| LMKC | ≤ 0.25 |
| IPPN | ≤ 0.25 |
| MRNR | ≤ 0.25 |
| YRPR | ≤ 0.25 |
| DHYL | ≤ 0.25 |
| TEPI | ≤ 0.25 |
| MFDN | ≤ 0.25 |
| DWQA | ≤ 0.25 |
| RLHR | ≤ 0.25 |
| NFHR | ≤ 0.25 |
| WNHP | ≤ 0.25 |
| DSMR | ≤ 0.25 |
| QQFL | 1.12 |
| RSIS | ≤ 0.25 |
| PRPG | ≤ 0.25 |
| RHLH | ≤ 0.25 |
| AISL | 7.95 |
| AREY | ≤ 0.25 |
| FRLY | ≤ 0.25 |
| WPHD | ≤ 0.25 |
| IQPE | ≤ 0.25 |
| LDKC | ≤ 0.25 |
| EGCS | ≤ 0.25 |
| FGWN | ≤ 0.25 |

| Variant | enrichment ratio |
| --- | --- |
| ETRL | ≤ 0.25 |
| QKNS | 2.68 |
| HIGH | ≤ 0.25 |
| LHDR | ≤ 0.25 |
| YYRK | ≤ 0.25 |
| YAAD | ≤ 0.25 |
| QDLN | ≤ 0.25 |
| FSDS | ≤ 0.25 |
| ATVP | ≤ 0.25 |
| DHYY | ≤ 0.25 |
| TCMG | 11.4 |
| WTYQ | ≤ 0.25 |
| WSKP | ≤ 0.25 |
| NVIN | ≤ 0.25 |
| FKMF | ≤ 0.25 |
| DNQM | ≤ 0.25 |
| SFWL | ≤ 0.25 |
| YFTK | ≤ 0.25 |
| PAGK | ≤ 0.25 |
| FLFS | ≤ 0.25 |
| YSGA | ≤ 0.25 |
| WRSS | ≤ 0.25 |
| PTKE | ≤ 0.25 |
| KFST | ≤ 0.25 |

| Variant | enrichment ratio |
| --- | --- |
| WFMW | ≤ 0.25 |
| DFSC | ≤ 0.25 |
| FTEA | ≤ 0.25 |
| SFIT | ≤ 0.25 |
| IHHI | ≤ 0.25 |
| IIEK | ≤ 0.25 |
| RAID | ≤ 0.25 |
| LSNN | ≤ 0.25 |
| EFNF | ≤ 0.25 |
| DLWA | ≤ 0.25 |
| RYRD | ≤ 0.25 |
| HEMV | ≤ 0.25 |
| HPFH | ≤ 0.25 |
| VDIC | ≤ 0.25 |
| QTLE | ≤ 0.25 |
| GEPC | ≤ 0.25 |
| TNTP | ≤ 0.25 |
| TNKQ | ≤ 0.25 |
| ISYD | ≤ 0.25 |
| LLMN | ≤ 0.25 |
| MYWD | ≤ 0.25 |
| YRYE | ≤ 0.25 |
| PPLS | ≤ 0.25 |
| HQND | ≤ 0.25 |

| Variant | enrichment ratio |
| --- | --- |
| FQPT | ≤ 0.25 |
| KLTV | ≤ 0.25 |
| HFRC | ≤ 0.25 |
| NKSN | ≤ 0.25 |
| KTEH | ≤ 0.25 |
| ANPT | ≤ 0.25 |
| FTYT | ≤ 0.25 |
| WQFM | ≤ 0.25 |
| YCRL | ≤ 0.25 |
| YVGD | ≤ 0.25 |
| YPHM | ≤ 0.25 |
| GWGE | ≤ 0.25 |
| LTKW | ≤ 0.25 |
| TGNG | 23.3 |
| GGYK | ≤ 0.25 |
| YWTT | ≤ 0.25 |
| QNVW | ≤ 0.25 |
| LERN | ≤ 0.25 |
| TMHG | 13.3 |
| EIPH | ≤ 0.25 |
| PVRW | ≤ 0.25 |
| DHWN | ≤ 0.25 |
| DCAH | ≤ 0.25 |
| AVNN | ≤ 0.25 |

| Variant | enrichment ratio |
| --- | --- |
| KDDY | ≤ 0.25 |
| LLQF | ≤ 0.25 |
| FSLL | 13.5 |
| SYAL | ≤ 0.25 |
| AYYS | ≤ 0.25 |
| DATR | ≤ 0.25 |
| PFSL | ≤ 0.25 |
| AKPI | ≤ 0.25 |
| SRAY | ≤ 0.25 |
| IMLD | ≤ 0.25 |
| FPLI | ≤ 0.25 |
| WCLC | ≤ 0.25 |
| GAHR | ≤ 0.25 |
| HLKR | ≤ 0.25 |
| IAHK | ≤ 0.25 |
| VNGC | ≤ 0.25 |
| GFEM | ≤ 0.25 |
| PWLP | ≤ 0.25 |
| NPLN | ≤ 0.25 |
| MYSY | ≤ 0.25 |
| TDST | 3.38 |
| FFDV | ≤ 0.25 |
| DSVS | ≤ 0.25 |
| ATWF | ≤ 0.25 |

| Variant | enrichment ratio |
| --- | --- |
| QRVY | ≤ 0.25 |
| VHCS | ≤ 0.25 |
| MYKL | ≤ 0.25 |
| CYAF | ≤ 0.25 |
| YFPK | ≤ 0.25 |
| TTGD | 0.456 |
| GCSY | ≤ 0.25 |
| RCHE | ≤ 0.25 |
| QGAQ | 3.05 |
| HGPD | ≤ 0.25 |
| KPSA | ≤ 0.25 |
| MHAC | ≤ 0.25 |
| RTFR | ≤ 0.25 |
| QNAQ | ≤ 0.25 |
| ELNW | ≤ 0.25 |
| WCGF | ≤ 0.25 |
| VPSW | ≤ 0.25 |
| SAKC | ≤ 0.25 |
| LAIS | ≤ 0.25 |
| QRII | ≤ 0.25 |
| PYPD | ≤ 0.25 |
| LVNS | ≤ 0.25 |
| PPIG | ≤ 0.25 |
| SDFM | ≤ 0.25 |

| Variant | enrichment ratio |
| --- | --- |
| VYSV | ≤ 0.25 |
| WHWH | ≤ 0.25 |
| MSLN | 4.44 |
| AQQQ | ≤ 0.25 |
| GVIM | 19.3 |
| DSWW | ≤ 0.25 |
| IMSN | ≤ 0.25 |
| SFTG | 5.29 |
| FIHS | ≤ 0.25 |
| KDVL | ≤ 0.25 |
| NINR | ≤ 0.25 |
| DSYM | ≤ 0.25 |
| ACAY | 3.43 |
| YACV | ≤ 0.25 |
| DAGL | ≤ 0.25 |
| CRYS | ≤ 0.25 |
| FSKH | ≤ 0.25 |
| VKMQ | ≤ 0.25 |
| TFFM | ≤ 0.25 |
| GTQW | ≤ 0.25 |
| DYKG | ≤ 0.25 |
| EYCM | ≤ 0.25 |
| QDFG | ≤ 0.25 |
| KYCP | ≤ 0.25 |

| Variant | enrichment ratio |
| --- | --- |
| EGKI | ≤ 0.25 |
| SFWM | ≤ 0.25 |
| MCLQ | 3.13 |
| YHWP | ≤ 0.25 |
| DIMN | ≤ 0.25 |
| WERC | ≤ 0.25 |
| TAMH | 8.01 |
| EASW | ≤ 0.25 |
| MIGP | ≤ 0.25 |
| FFHW | ≤ 0.25 |
| EVDV | ≤ 0.25 |
| WYGV | ≤ 0.25 |
| WDHA | ≤ 0.25 |
| ATTI | 13.7 |
| RPFQ | ≤ 0.25 |
| EIQD | ≤ 0.25 |
| LQFC | ≤ 0.25 |
| PWNS | ≤ 0.25 |
